Assay results from PubChem BioAssay AID686979 (National Center for Advancing Translational Sciences (NCATS), 2013).
Among all 420,000 compounds or so, about 50,000 (12%) were called active. The inconclusive results got no clear call from the source; some entries with a clear call stand among them for comparison. Calls follow the shape of the dose curve; as a rule, active = well fitted inhibition curve with a large enough effect; inconclusive = small, poorly fitted or top-dose-only effect; inactive = flat fitted curve, though single readings scatter. No potency is given beside an inconclusive call; the fits are too rough.

assay: qHTS for Inhibitors of human tyrosyl-DNA phosphodiesterase 1 (TDP1): qHTS in cells in presence of CPT; conditions: chicken DT40 Tdp1-/-;hTDP1 cells + 20 nM CPT, ATP luminescence, 48 h; activity change, negative = growth inhibition: at 46.2 µM (top of the series) unless noted; also: nearly all actives have a fitted effect of over 55% in size
Method in brief: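 Chicken DT40 Tdp1-/- cells stably complemented with human TDP1 were seeded at 400 cells/well in medium containing 20 nM camptothecin, exposed to pin-transferred compounds, and grown at 37 °C for at least 48 hr. Viability was read as ATP luminescence.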
% is scaled to controls: 0 for no effect and ±100 for the full control effect; potency is read from the fitted curve at half-maximal effect; tags tell the direction and shape of the fitted curve.

| SMILES | Potency | activity change, negative = growth inhibition |
| --- | --- | --- |
| Oc1ccc(C[C@H]2CN([C@@H](Cc3ccc(O)cc3)CN3CCC[C@@H]3CN3C(=S)NC[C@@H]3Cc3ccccc3)C(=S)N2CC2CCCCCC2)cc1 | active: 16.4 µM | – |
| Oc1oc(-c2cccc3ccccc23)nc1/C=N/c1nccs1 | inconclusive [inhibitor, single point] | – |
| CC(=O)N1CC=CC1(CC(C)C)C(=O)NCc1cc(F)cc(C(F)(F)F)c1 (stereo not given) | – | inactive: -10.5% |
| CN(C)c1nnnn1-c1ccc(Cl)cc1 | – | inactive: 0.0585% |
| Nc1nc(Nc2ccc(Cl)cc2)nc2ccccc12 | active: 7.31 µM | – |
| O=C(Nc1nnc(S(=O)(=O)N2CCCCC2)s1)c1cccc(Br)c1 | active: 23.1 µM | – |
| COc1ccc(S(=O)(=O)N2CCCC2CNC(=O)C(=O)Nc2ccc(F)cc2)cc1 (stereo not given) | inconclusive [inhibitor, single point] | – |
| Cc1c(NC(=O)COC(=O)c2cc3c4ccccc4n(C)c3s2)c(=O)n(-c2ccccc2)n1C | – | inactive: -13.5% |
| CCOc1ccc(C(=O)C(C)OC(=O)c2nc(Cl)ccc2Cl)cc1 (stereo not given) | inconclusive [inhibitor, single point] | – |
| CN(CC[C@@H](Oc1ccc(-c2ccccc2)cc1)c1ccc(F)cc1)CC(=O)O | inconclusive [inhibitor, single point] | – |
| COc1ccc2nc(NC(=O)c3nc(S(=O)(=O)Cc4ccc(C)cc4)ncc3Cl)sc2c1 | active: 1.64 µM | – |
| C/C(=N\OC(=O)NC1CCCCC1)c1sc(-c2ccccc2)nc1C | active: 25.9 µM | – |
| COc1ccc(/C=C(/C(=O)NCc2ccccc2)c2ccccc2)cc1 | inconclusive [inhibitor, single point] | – |
| COc1ccc(NC(=O)C2CCCCN2S(=O)(=O)c2ccc(F)cc2)cc1 (stereo not given) | – | inconclusive: -32.9% [inhibitor] |
| CC(=O)c1ccc(OCC(C)Oc2ccc(C#N)cc2)cc1 (stereo not given) | inconclusive [inhibitor, single point] | – |
| O=C(CN1C(=O)c2ccccc2Sc2ncccc21)Nc1cccc(C(F)(F)F)c1 | active: 18.4 µM | – |
| COc1cccc(NC(=O)C2(C)CCN2C(=O)CCc2ccc(Cl)cc2Cl)c1 (stereo not given) | inconclusive [inhibitor, single point] | – |
| COc1ccc(Cl)cc1NC(=O)c1noc2c1CCc1ccccc1-2 | – | inactive: -13% |
| COc1ccc(-c2c[n+](CC(=O)N3c4ccccc4Sc4ccccc43)c3n2CCC3)cc1 | active: 2.31 µM | – |
| Cc1cc(/C=C2/NC(=O)NC2=O)c(C)n1-c1sc2c(c1C#N)CCCC2 | inconclusive [inhibitor, single point] | – |
